In PubChem BioAssay AID761 (NMMLSC, 2007):
Hit rate of the full screen: of about 190,000 compounds, about 400 (0.21%) were called active. The shares of active, inactive and inconclusive entries below differ from those in the screen.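 Rule for the calls: active = percent activity GTP binding at least 20 points away from the 100% baseline, either down as inhibitor or up as activator; inconclusive = compound flagged as likely green fluorescent from well-wide comparison; inactive = the rest.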

Molecular target: Cell division control protein 42 homolog (Homo sapiens) (UniProt P60953)
Assay: wildtype Cdc42 fluorescent GTP binding changes, either direction – biochemical, multiplex bead flow cytometry, Bodipy-GTP, primary screen (AID 761);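 note: median bead fluorescence of bound Bodipy-FL-GTP at 100 nM; 0% = excess unlabeled GTP control and 100% = no compound control; below 100% means less GTP binding so inhibitor and above means activator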
Conditions: GST-Cdc42 beads, at 10 µM, actives lie on both sides

UniProt P60953, sequence (P60953 whole entry, looked up): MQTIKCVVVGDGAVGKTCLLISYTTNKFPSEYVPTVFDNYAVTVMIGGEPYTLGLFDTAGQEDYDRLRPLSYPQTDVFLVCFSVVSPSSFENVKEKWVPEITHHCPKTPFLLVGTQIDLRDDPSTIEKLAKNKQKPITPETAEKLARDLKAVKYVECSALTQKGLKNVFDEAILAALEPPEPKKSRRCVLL

SMILES | percent activity (GTP binding)
Cn1c(SCc2cc(=O)[nH]c3ccccc23)nnc1-c1ccco1 | inconclusive: 103%
COCCn1c(-c2ccc(-c3ccc([N+](=O)[O-])cc3Br)o2)nc2c1c(=O)[nH]c(=O)n2CC(C)C | inactive: 91%
COC(=O)c1cc2occc2n1Cc1c(F)cccc1Cl | inconclusive: 87%
O=C(O)/C=C/C(=O)NC1CCS(=O)(=O)C1 (configuration not stated) | inconclusive: 102%
Cc1cc(=O)[nH]c(N=N/C(=N/Nc2ccc(O)cc2)c2ccccc2)n1 | inconclusive: 98%
COC(=O)CN1C(=S)N(c2ccc(OC)cc2)C(=O)/C1=C/c1ccc(OC)cc1 | inconclusive: 96%
O=C(Nc1ccccc1N1CCOCC1)C1CCN(S(=O)(=O)c2ccccc2F)CC1 | inactive: 102%
CCOC(=O)c1sc2nc3c(SCC(=O)O)cc(C(=O)c4cc(F)ccc4O)cn3c(=O)c2c1C | inconclusive: 85%
COc1cc(C(=O)OCC(=O)NCc2ccccc2)cc(NC(=O)c2ccco2)c1OC | inconclusive: 93%
Cc1cc(-c2nn(-c3ccccc3F)cc2CN2CCN(c3ccccn3)CC2)c(C)s1 | inactive: 96%
O=C(O)CCNS(=O)(=O)c1ccc2c(c1)CCCC2 | inconclusive: 95%
O=C(O)CSc1nnc(Nc2ccccc2)n1-c1ccccc1 | inconclusive: 92%
O=C(Cn1nnc2ccccc2c1=O)N1CCOCC1 | inactive: 98%
COc1ccc(N(C(=O)CNC(=O)c2cccs2)C(C(=O)NCC2CCCO2)c2ccccc2)cc1OC (configuration not stated) | inactive: 97%
CCOc1ccc(NC(=O)NC(=O)N(C(C)C)S(C)(=O)=O)cc1 | inactive: 96%
COC(=O)c1cc(NC(=O)c2cccc(Cl)c2)c(=O)oc1/C=C/Nc1cc(C)cc(C)c1 | inconclusive: 239%
C=CCNc1oc(/C=C/c2ccccc2)nc1C#N | inconclusive: 109%
C=CCNc1nc(=S)[nH]c2cc(OC)c(OC)cc12 | inconclusive: 62%
Nc1c(S(=O)(=O)c2cccs2)c2nc3ccccc3nc2n1/N=C/c1cccc(O)c1 | active: 45%

SMILES | percent activity (GTP binding)
O=C(NCCc1ccccc1)C1CCCN(S(=O)(=O)c2cccc3nonc23)C1 (configuration not stated) | inconclusive: 106%
Cc1ccc(NC(=S)N2CCC(N(C)CC3CCCO3)CC2)cc1 (configuration not stated) | inactive: 99%
CC(=O)N1CCN(C(=O)CCc2c[nH]c3ccccc23)CC1 | inconclusive: 107%
COc1ccc(-n2nnnc2SCC(=O)NCc2cccs2)cc1 | inconclusive: 95%
Cc1cccc(CSCc2ccc(C(=O)NCC3CCCO3)o2)c1 (configuration not stated) | inactive: 102%
Cc1cc(C)n(Cc2cnc(N3CCOCC3)s2)n1 | inconclusive: 91%
COc1ccc(C)cc1NS(=O)(=O)c1ccc(NC(=O)CN(c2cc([N+](=O)[O-])ccc2C)S(C)(=O)=O)cc1 | inconclusive: 102%
CC(C)c1ccc(C(=O)NN2C(=O)C3CCCCC3C2=O)cc1 (configuration not stated) | inactive: 101%
N#C/C(=C\C=C\c1ccccc1[N+](=O)[O-])C(=O)NC1CCCCC1 | inconclusive: 89%
CCN1CCCC1CNC(=O)c1ccc(N2CCCC2=O)cc1 (configuration not stated) | inconclusive: 96%
c1ccc(-c2nnc(SCC3CCCCO3)nc2-c2ccccc2)cc1 (configuration not stated) | inconclusive: 92%
CCOC(=O)c1cc(-c2cccc([N+](=O)[O-])c2)n[nH]1 | inconclusive: 101%
Cc1nc2ccccc2n1CC(O)Cn1c2ccccc2c2ccccc21 (configuration not stated) | inconclusive: 104%
CC(/C=N\NC(=O)CN1CCN(S(=O)(=O)c2ccc(C)cc2)CC1)=C\c1ccccc1 | inactive: 98%
CCOc1cc(/C=C2/SC(=S)NC2=O)ccc1OC(=O)c1ccco1 | inconclusive: 80%
COc1c(C)cc(Br)cc1C(=O)Nc1cccc(NC(=O)c2ccco2)c1 | inconclusive: 102%
CCC(=O)Nc1ccc(C(=O)N/N=C/c2cc(Br)c(OC)cc2OC)cc1 | inconclusive: 95%
Cn1c(C(=O)NCCCN2CCN(c3cccc(Cl)c3)CC2)cc2c(=O)n(C)c3ccccc3c21 | inconclusive: 82%
O=[N+]([O-])c1cccc(/C([O-])=C(/C(=S)Nc2ccccc2F)[n+]2ccccc2)c1 | inactive: 95%

SMILES | percent activity (GTP binding)
Cc1ccc(S(=O)(=O)NCc2ccc(C(=O)NCCCN3CCC(Cc4ccccc4)CC3)cc2)cc1 | inactive: 101%
COCCn1c(SCC(=O)Nc2ccc(C)cc2C)nc2c(oc3ccccc32)c1=O | inconclusive: 104%
CCn1c2ccccc2c2nnc(SCC(=O)NCCOC)nc21 | inactive: 97%
COC1=CCC2([N+](=O)[O-])CN(CCO)CC1([N+](=O)[O-])C2 (configuration not stated) | inactive: 103%
O=S(=O)(NCc1ccco1)N1CCCCCC1 | inconclusive: 97%
COc1ccc(-c2noc(C(=O)NCc3ccc(F)cc3)n2)cc1OC | inactive: 100%
COc1cccc(C(=O)N2CCSC2=S)c1 | inconclusive: 98%
CNCC(=O)Nc1c(C)n[nH]c1C | inconclusive: 106%
CCOC(=O)CC(=O)CSc1ccc2nnc(-c3ccc(C)cc3)n2n1 | inconclusive: 109%
C=CCN(c1ccccc1)S(=O)(=O)c1ccc2c(c1)oc(=O)n2C | inactive: 97%
O=S(=O)(CC(CN1CCOCC1)N1CCOCC1)c1ccccc1 (configuration not stated) | active: 60%
CC1CN(C(=O)c2cccc(S(=O)(=O)Nc3cc(Cl)ccc3Cl)c2)CC(C)O1 (configuration not stated) | active: 79%
COc1cc(/C=N\NC(=O)c2ccc(Cn3nc([N+](=O)[O-])c(Cl)c3C)o2)ccc1O | inconclusive: 55%
Cc1sc2nc(-c3ccccc3)oc(=O)c2c1C | inactive: 96%
CCN1/C(=C/c2ccc3cc(C)ccc3[n+]2C)Sc2ccc3sccc3c21 | inconclusive: 55%
Cc1ccccc1NS(=O)(=O)c1ccc(C)c(NS(C)(=O)=O)c1C | inactive: 90%
CN(C)Cc1nc2ccccc2c(=O)n1CC(=O)Nc1cccc(S(=O)(=O)N2CCOCC2)c1 | inconclusive: 100%
COc1ccc(C(=O)NCC(=O)OCC(=O)N2CCc3ccccc32)cc1 | inactive: 94%
Cc1ccccc1C(=O)c1cccn1CC(=O)NC(C)c1ccc2c(c1)OCCO2 (configuration not stated) | inactive: 99%
